From the supplement of paper PMC4604168 (melanoma cell lines)
The other results are listed elsewhere or left out. Most values come without repeats; read them as rough.

Columns and labels:
Assay in all cases: cell count relative to DMSO control; melanoma cells; higher = more viable cells
Settings in all cases: library dose: standard library concentration; 72 h
G361 = test system: G361
IPC-298 = test system: IPC-298
IST-MEL1 = test system: IST-MEL1
LB2518-MEL = test system: LB2518-MEL
LOXIMVI = test system: LOXIMVI
MEL-HO = test system: MEL-HO
MZ2-MEL = test system: MZ2-MEL
MeWo = test system: MeWo
RPMI7951 = test system: RPMI7951
RVH-421 = test system: RVH-421
SkMel28 = test system: SkMel28
SkMel2 = test system: SkMel2
SkMel30 = test system: SkMel30
SkMel5 = test system: SkMel5
UACC257 = test system: UACC257
UACC62 = test system: UACC62
WM115 = test system: WM115
WM1716 = test system: WM1716
WM3526 = test system: WM3526
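Also: cells treated in 1,536-well plates, then fixed and DAPI-stained, with nuclei counted from automated high-throughput microscope images.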

| Structure (SMILES) | cell count (G361) | cell count (IPC-298) | cell count (IST-MEL1) | cell count (LB2518-MEL) | cell count (LOXIMVI) | cell count (MEL-HO) | cell count (MZ2-MEL) | cell count (MeWo) | cell count (RPMI7951) | cell count (RVH-421) | cell count (SkMel28) | cell count (SkMel2) | cell count (SkMel30) | cell count (SkMel5) | cell count (UACC257) | cell count (UACC62) | cell count (WM115) | cell count (WM1716) | cell count (WM3526) |
| --- | --- | --- | --- | --- | --- | --- | --- | --- | --- | --- | --- | --- | --- | --- | --- | --- | --- | --- | --- |
| Nc1ccn([C@@H]2O[C@H](CO)[C@@H](O)C2(F)F)c(=O)n1 [gemcitabine] + COc1ccc(-c2ccc3c(N4CCOCC4)nc(N4C[C@@H](C)O[C@@H](C)C4)nc3n2)cc1CO [KU0063794] (first compound 0.002 µM, partner dose 0.1 µM) | 37.4% | 28.5% | 38% | 58.6% | 57.5% | 51.8% | 60.1% | 33.6% | 68.4% | 67.6% | 72% | 71.9% | 80.8% | 71.3% | 86.7% | 87% | 72.7% | 56.2% | 76.3% |
| Nc1ncn([C@H]2C[C@H](O)[C@@H](CO)O2)c(=O)n1 [decitabine] + Oc1nc(-c2ccc(C(F)(F)F)cc2)nc2c1CSCC2 [XAV939] (first compound 0.5 µM, partner dose 10 µM) | 67% | 55.3% | 63.1% | 84.9% | 81.5% | 78.4% | 71.6% | 66.8% | 74.1% | 66.6% | 60.1% | 88.1% | 95.7% | 56.4% | 69.7% | 57.8% | 81.7% | 44.4% | 99.3% |
| CC(=O)O[C@@]12CO[C@@H]1C[C@H](O)[C@@]1(C)C(=O)[C@H](O)C3=C(C)[C@@H](OC(=O)[C@H](O)[C@@H](NC(=O)OC(C)(C)C)c4ccccc4)C[C@@](O)([C@@H](OC(=O)c4ccccc4)[C@H]21)C3(C)C [Docetaxel] + CCN(CC)CCCCNc1ncc2cc(-c3cc(OC)cc(OC)c3)c(NC(=O)NC(C)(C)C)nc2n1 [PD173074] (first compound 0.0005 µM, partner dose 0.5 µM) | 19.3% | 46.2% | 41% | 55.9% | 79.6% | 47.3% | 58% | 27.4% | 25.5% | 68.1% | 18.1% | 22.4% | 50% | 41.1% | 68.7% | 58.4% | 46% | 49.4% | 44.8% |
| Nc1ccn([C@@H]2O[C@H](CO)[C@@H](O)C2(F)F)c(=O)n1 [gemcitabine] + COC(=O)c1sccc1S(=O)(=O)Nc1ccc(Nc2ccccc2)cc1OC [GSK0660] (first compound 0.002 µM, partner dose 5 µM) | 68.6% | 58.9% | 51.3% | 80.1% | 102% | 71.8% | 82.8% | 50.3% | 77.7% | 80.4% | 106% | 99% | 90% | 92.2% | 98.9% | 90.5% | 86.2% | 72.2% | 115% |
| Nc1ncn([C@H]2C[C@H](O)[C@@H](CO)O2)c(=O)n1 [decitabine] + Oc1cc(-c2nc(-c3ccccc3)[nH]c2-c2ccncc2)ccc1Cl [L779450] (first compound 0.5 µM, partner dose 1 µM) | 53.6% | 52.4% | 82.3% | 87.3% | 100% | 69.1% | 92.4% | 69.6% | 97.8% | 68.9% | 40.3% | 24.4% | 90.3% | 50.9% | 82.8% | 46.1% | 43.2% | 55% | 57.1% |
| Nc1ncn([C@H]2C[C@H](O)[C@@H](CO)O2)c(=O)n1 [decitabine] + CCCCCCCCCCCC1=C(O)C(=O)C=C(O)C1=O [Embelin] (first compound 0.5 µM, partner dose 6 µM) | 65.7% | 37.9% | 49.6% | 84% | 93.9% | 56.3% | 63.1% | 52.2% | 71.7% | 63.8% | 68.6% | 92.2% | 84.2% | 68% | 81.3% | 69.7% | 67.6% | 64.4% | 87.7% |
| Nc1ccn([C@@H]2O[C@H](CO)[C@@H](O)C2(F)F)c(=O)n1 [gemcitabine] + COc1cc(N2CCC(N3CCN(C)CC3)CC2)ccc1Nc1ncc(Cl)c(Nc2ccccc2S(=O)(=O)C(C)C)n1 [NVP-TAE684] (first compound 0.002 µM, partner dose 0.4 µM) | 46.4% | 62.5% | 37.4% | 54.6% | 114% | 57.9% | 89.3% | 32.5% | 55.2% | 74.9% | 97.4% | 73.2% | 148% | 80.6% | 110% | 65.4% | 62% | 63.2% | 87.1% |
| CC(=O)c1c(C)c2cnc(Nc3ccc(N4CCNCC4)cn3)nc2n(C2CCCC2)c1=O [palbociclib] + COc1ccc(-c2ccc3c(N4CCOCC4)nc(N4C[C@@H](C)O[C@@H](C)C4)nc3n2)cc1CO [KU0063794] (first compound 0.2 µM, partner dose 0.1 µM) | 70% | 66.7% | 76.5% | 70.2% | 128% | 69.3% | 80.6% | 58.1% | 61.8% | 76.5% | 49.4% | 64.8% | 65.7% | 55.9% | 80.4% | 93.3% | 70.3% | 45.4% | 54.5% |
